Experimental data from the antibiotic and cytotoxicity screens of Wong et al. (2023).
This is one part of the list.

Experiments:
HSkMC = human skeletal muscle cells; test: cytotoxicity call (relative viability < 0.9); details: 10 µM
HepG2 = test: cytotoxicity call (relative viability < 0.9); details: 10 µM
S. aureus RN4220 = test: growth inhibition call (relative growth <= 0.2); details: 50 µM

| SMILES | cytotoxicity call (HSkMC) | cytotoxicity call (HepG2) | growth inhibition call (S. aureus RN4220) |
| --- | --- | --- | --- |
| CC(C)NC(=O)N(C)C[C@H]1OCc2cnnn2CCCC(=O)N([C@H](C)CO)C[C@@H]1C | inactive | inactive | inactive |
| C[C@H]1CN([C@@H](C)CO)C(=O)c2ccccc2-c2ccccc2CO[C@H]1CN(C)Cc1ccc(-c2ccccc2)cc1 | inactive | inactive | inactive |
| C[C@@H]1C[C@H](C)CN(S(=O)(=O)N2CCC[C@H](C(=O)NCCN3CCOCC3)C2)C1 | inactive | inactive | inactive |
| COc1ccc2nc3cc(Cl)ccc3c(Nc3cc(CN4CCCC4)c(O)c(CN4CCCC4)c3)c2n1.O=P(O)(O)O.O=P(O)(O)O.O=P(O)(O)O.O=P(O)(O)O | inactive | active | inactive |
| CC(C)N1CC[C@@H](CN(C)Cc2ccc(Cl)cc2)Oc2c(NC(=O)c3ccncc3)cccc2C1=O | inactive | inactive | inactive |
| CO[C@H]1CN(C)C(=O)c2ccc(NC(=O)C3CC3)cc2OC[C@@H](C)N(C(=O)CN2CCOCC2)C[C@@H]1C | inactive | inactive | inactive |
| C[C@@H]1CCCCO[C@H](CN(C)Cc2ccc(C(=O)Nc3ccccc3N)cc2)[C@H](C)CN([C@@H](C)CO)C(=O)c2cc(N(C)C)ccc2O1 | inactive | inactive | inactive |
| C[C@@H]1CN([C@H](C)CO)C(=O)c2cc(NC(=O)CCCN(C)C)ccc2O[C@H]1CN(C)C(=O)Nc1ccccc1 | inactive | inactive | inactive |
| C[C@@H]1CCCCO[C@@H](CN(C)S(C)(=O)=O)[C@@H](C)CN([C@H](C)CO)C(=O)c2cc(NS(=O)(=O)c3ccc(F)cc3)ccc2O1 | inactive | inactive | inactive |
